The list shows a part of the results. The full chains were built here from the parent and the listed change. Inactive controls read about 0.05.
B1: TEV protease; numbered along this chain (parent)
chain: MGESLFKGPRDYNPISSSICHLTNESDGHTTSLYGIGFGPFIITNKHLFRRNNGTLVVQSLHGVFKVKDTTTLQQHLVDGRDMIIIRMPKDFPPFPQKLKFREPQREERICLVTTNFQTKSMSSMVSDTSCTFPSGDGIFWKHWIQTKDGQCGSPLVSTRDGFIVGIHSASNFTNTNNYFTSVPKNFMELLTNQEAQQWVSGWRLNADSVLWGGHKVFMVKPEEPFQPVKEATQL

Variants of: B1
Test: raw area under fraction-flipped curve 0-4 h after induction (AUC4h, not background-subtracted), DNA-recorder readout of cleavage of the substrate (dimensionless); higher = more cleavage of the substrate by the protease variant
Conditions: temperature: 34 °C; time window: 0-4 h after rhamnose induction
Protocol: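 In vivo DNA recorder in E. coli TOP10(DE3) ΔrhaA at 34 °C. Each TEVp single-site mutant (parent TEVp 0) is paired with a single-site variant of the 7-mer TEVs (canonical ENLYFQ|S). The substrate sits between flexible linkers in a Bxb1-sfGFP-TEVs-SsrA fusion, so cleavage stabilises Bxb1 and speeds flipping of a recombination array, read by NGS. The value is the raw area under the fraction-flipped curve over 0-4 h after rhamnose induction (AUC4h), with ≥20 reads per time point. It is not background-subtracted; inactive controls average about 0.047.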
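Note: Bxb1 expression induced with 0.2% (w/v) L-rhamnose at OD600 near 0.5, cultures sampled hourly, flipped fraction per protease–substrate barcode pair counted by paired-end Illumina sequencing.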

Variant	area with substrate ENAYFQS	area with substrate ENEYFQS	area with substrate ENMYFQS	area with substrate ENQYFQS	area with substrate ENYYFQS	area with substrate ENDYFQS	area with substrate ENFYFQS	area with substrate ENGYFQS	area with substrate ENHYFQS	area with substrate ENIYFQS	area with substrate ENNYFQS	area with substrate ENRYFQS	area with substrate ENSYFQS	area with substrate ENVYFQS	area with substrate ENWYFQS	area with substrate ENCYFQS	area with substrate ENKYFQS	area with substrate ENTYFQS	area with substrate ENPYFQS
D82A	0.0393	0.0652	0.0706	0.076	0.0525	–	–	–	–	–	–	–	–	–	–	–	–	–	–
F65H	0.0604	0.0777	–	0.0601	–	0.0568	0.0564	0.0551	0.0425	0.0795	0.0448	0.0542	0.123	0.0808	0.0059	–	–	–	–
T55L	0.0528	0.0511	–	–	–	0.0696	0.0562	0.0703	–	–	0.0541	–	0.0588	0.0707	–	0.0637	0.0668	0.0548	–
T55D	0.0648	0.0569	–	0.0464	–	0.0508	0.0468	–	–	–	0.0612	0.0493	–	–	–	0.0545	0.0453	–	–
T55N	0.0702	0.0564	–	0.0607	–	0.062	0.0567	–	–	0.135	0.0705	0.0535	–	0.0984	0.0717	0.0466	0.0646	–	0.0605
Q59L	0.0512	–	–	0.0428	–	0.0547	–	–	0.0551	–	–	0.0446	–	–	0.0063	0.0791	–	–	–
Q59P	0.0403	0.0388	0.0395	0.0338	–	0.0461	–	0.0548	0.0435	0.0442	0.0449	0.0495	0.0503	–	–	0.033	0.0446	0.0391	0.0464
Q59D	0.0515	–	–	–	0.051	–	–	–	–	–	–	–	–	–	–	0.0687	–	–	–
Q75I	0.0602	0.0588	–	0.0505	–	0.0602	0.0771	–	0.0648	–	0.0666	–	0.0629	0.0729	0.051	0.0694	–	–	–
G63S	0.0737	0.0463	0.0619	0.0598	0.0535	–	0.0657	0.0707	–	0.0884	0.0481	0.0561	0.0604	0.067	–	0.0523	0.0683	0.0523	0.0537
P89M	0.0419	0.0578	0.0843	0.0617	0.0547	0.0621	–	0.0537	0.0823	0.0791	0.0479	–	–	0.055	–	–	–	0.0511	0.0493
P89Q	0.0639	0.059	–	0.055	–	–	0.0605	0.0615	0.0603	0.0628	0.0714	0.0562	0.055	0.0615	0.0476	–	–	0.0575	0.0518
R87A	0.0609	0.0571	–	0.057	–	–	0.0663	–	–	–	0.0332	0.065	–	–	–	0.0535	–	0.0603	–
R87C	0.0938	0.0645	–	0.0432	–	0.0579	0.046	–	0.0589	0.114	0.0721	–	–	–	–	0.0718	–	–	–
R87I	0.0633	0.0549	–	0.0443	0.0528	0.0579	0.0446	0.0591	0.0641	0.0872	0.0502	0.0618	0.0541	0.0601	–	0.0653	–	0.0631	0.0654
R87S	0.0551	0.0567	–	0.0589	–	0.0566	0.0522	0.06	0.0581	0.0666	–	0.0506	0.0481	0.06	0.0504	0.06	0.0487	0.0728	–
R87Y	0.0369	0.053	–	0.0716	–	0.0776	0.0391	0.0706	–	–	–	–	0.0613	0.073	–	–	–	0.0794	–
T71N	0.0442	0.0644	0.0736	0.0591	0.0579	–	–	–	–	–	0.0507	–	0.0584	–	–	–	0.0678	0.0878	0.0465
T71G	0.0697	0.0559	–	–	0.0594	0.0606	0.0534	0.0731	0.0559	0.0838	0.0582	–	0.0855	0.0628	0.0471	–	0.0331	0.0648	0.0562
T71Q	0.0503	0.053	0.0972	0.0888	–	0.0631	–	0.052	–	–	–	0.0595	0.0408	–	–	–	0.0475	–	–
R81S	0.0593	0.0654	0.07	0.0653	0.0585	–	0.0622	0.037	–	–	0.0606	–	0.0636	0.0965	0.0202	0.0655	0.0583	0.0798	0.0753
R81Y	0.0415	0.0609	0.0852	0.0625	0.0641	0.0649	0.0511	0.0692	0.0623	0.084	0.061	–	0.0558	–	0.0616	0.0621	–	–	–
I84R	0.0513	0.0497	0.0637	–	–	0.0602	0.0688	–	–	0.0595	0.063	–	–	0.0564	–	0.0892	–	0.0661	–
I84D	0.0598	0.0473	0.0516	0.046	0.057	0.0563	0.05	0.0561	–	0.0533	–	–	0.0513	0.059	–	0.0455	0.0703	0.0328	0.0518
L73D	0.0595	0.0435	–	0.0553	–	0.0483	0.0516	0.0434	0.0487	–	–	0.0505	–	0.0453	–	0.0365	0.0409	0.0523	–
L73C	0.0581	0.0602	0.07	0.0746	0.0446	–	0.071	–	0.0693	–	0.0587	0.0652	0.0587	–	–	0.0609	0.0738	0.0626	–
L73H	0.0635	0.0282	–	0.0522	0.0284	0.0515	–	–	0.0469	–	–	0.0435	0.0436	0.0694	–	–	–	0.0427	0.0546
D79P	0.0673	0.0619	–	0.0564	–	0.0684	–	–	–	–	–	–	0.101	–	–	–	0.063	0.0637	–
K66N	0.066	–	0.0597	0.0552	–	0.0615	0.0687	–	0.0453	–	–	–	–	–	–	–	0.0525	0.0588	–
H76V	0.0645	0.0393	–	–	–	–	0.073	0.0485	0.0465	0.108	–	–	0.0586	0.0528	–	0.0536	–	0.0516	–

— the supplement of paper PMC12217912
